# Reference: publication PMC4336329 (PLoS ONE, 2015)
# Screen size: about 310,000 compounds; about 14,000 (4.5%) showed an effect of 50% or more. Effects have a minus sign here. The list shows a part of the results.
# Biological target: human ether-à-go-go-related gene (hERG) potassium channel (human, UniProt Q12809)
# Test: primary screen, population patch clamp on CHO cells stably expressing hERG
# 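Note: peak tail current of the secondary pulse compared with the same well before compound.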
# Chain of human ether-à-go-go-related gene (hERG) potassium channel (Q12809 whole entry, looked up): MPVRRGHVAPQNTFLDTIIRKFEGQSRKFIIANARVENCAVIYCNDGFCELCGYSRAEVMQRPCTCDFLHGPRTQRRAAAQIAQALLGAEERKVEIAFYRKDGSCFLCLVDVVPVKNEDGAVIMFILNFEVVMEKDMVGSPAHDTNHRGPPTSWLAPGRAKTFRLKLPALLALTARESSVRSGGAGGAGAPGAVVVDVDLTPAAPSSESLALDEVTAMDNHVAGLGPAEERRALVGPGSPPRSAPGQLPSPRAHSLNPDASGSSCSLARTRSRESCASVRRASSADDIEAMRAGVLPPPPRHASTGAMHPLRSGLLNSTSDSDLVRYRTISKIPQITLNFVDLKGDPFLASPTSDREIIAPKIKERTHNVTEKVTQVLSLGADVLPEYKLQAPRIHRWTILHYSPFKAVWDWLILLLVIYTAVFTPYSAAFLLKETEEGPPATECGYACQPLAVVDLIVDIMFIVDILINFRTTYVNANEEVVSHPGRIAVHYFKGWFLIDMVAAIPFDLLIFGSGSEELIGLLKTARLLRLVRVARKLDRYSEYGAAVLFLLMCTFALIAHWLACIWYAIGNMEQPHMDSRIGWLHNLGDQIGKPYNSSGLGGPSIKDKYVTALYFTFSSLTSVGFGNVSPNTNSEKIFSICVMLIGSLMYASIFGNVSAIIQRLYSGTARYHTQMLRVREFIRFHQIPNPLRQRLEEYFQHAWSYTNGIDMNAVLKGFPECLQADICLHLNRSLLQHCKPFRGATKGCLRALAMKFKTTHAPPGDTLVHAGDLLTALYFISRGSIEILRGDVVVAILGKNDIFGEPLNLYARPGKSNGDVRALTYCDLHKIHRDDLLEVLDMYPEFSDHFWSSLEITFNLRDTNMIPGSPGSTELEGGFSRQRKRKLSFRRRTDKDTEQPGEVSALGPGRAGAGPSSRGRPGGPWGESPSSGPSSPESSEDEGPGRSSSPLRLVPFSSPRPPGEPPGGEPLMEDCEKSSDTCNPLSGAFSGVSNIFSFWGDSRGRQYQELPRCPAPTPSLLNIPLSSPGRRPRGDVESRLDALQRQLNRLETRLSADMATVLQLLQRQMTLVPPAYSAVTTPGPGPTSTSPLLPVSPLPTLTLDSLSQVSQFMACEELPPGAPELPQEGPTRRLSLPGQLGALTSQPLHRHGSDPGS
row,Compound,"hERG current change (%, negative = inhibition) at 10uM [%]"
1,OCc1ccc(N=Nc2ccccc2)cc1,3.29
2,COc1ccc2oc(=O)c(-c3nnc(NCc4ccco4)s3)cc2c1,-0.652
3,CCc1cc2cc3c(cc2nc1SCC(=O)Nc1cc(C)on1)OCO3,4.89
4,Cc1cc(C)n2[nH]c(=O)c(N=Nc3cccc(C(F)(F)F)c3)c2n1,-23.8
5,Cc1ccc(NC(=O)CN2CCOCC2)cc1,14.1
6,CCCCn1c(=O)c(C(=O)Nc2ccccc2Cl)c(O)c2ccccc21,18.3
7,CC(C)(C)NC(=O)C(c1cccs1)N(Cc1cccs1)C(=O)c1ccc(CN2CCOCC2)o1 (stereo not shown),1.44
8,COc1ccc(CCNC(=O)CN2CCC(C(N)=O)CC2)cc1,14.8
9,COc1ccc(NC(=O)C2CCN(S(=O)(=O)c3cccc4nonc34)CC2)cc1OC,3.96
10,CCc1ccc(CN(C)C(=O)c2cc(COc3cccc(C(F)(F)F)c3)on2)nc1,-22.3
11,CCOC(=O)C1(C)/C(=N/Nc2ccccc2)C(=O)C(=O)N1c1ccccc1 (stereo not shown),-18.3
12,CC(C)NC(=O)NC(=O)CSc1nnc(C(F)(F)F)n1C,8.44
13,O=C(N/N=C/c1ccncc1)c1ccccc1[N+](=O)[O-],2.56
14,C/C(=N\O)C(=O)OC1CC(C)CCC1C(C)C (stereo not shown),-0.433
15,COc1ccc(CCNC(=O)COc2ccc([N+](=O)[O-])cc2)cc1,-31.1
16,COc1ccc(S(=O)(=O)N2CCN(C(=O)c3ccco3)CC2)cc1C(C)(C)C,4.96
17,COCCCN=C1NN=C(c2cc(C)n(Cc3ccccc3Cl)c2C)CS1,-6.95
18,Cc1cc(C(=O)Nc2ccc(Br)cc2)c2ccccc2n1,17
19,C#CC[N+](C)(C)CCN1C(=O)C2C(c3ccccc3)C=CC(c3ccccc3)C2C1=O.[Br-] (stereo not shown),6.61
20,Cc1noc(C)c1C(=O)NCCCc1ccccc1,3.39
21,CN(C)S(=O)(=O)c1cccc(NC(=S)N/N=C/C(=O)c2ccccc2)c1,-48.5
22,CCN(Cc1ccncc1)C(=S)Nc1ccc(Cl)cc1,12.8
23,Cc1ccc(S(=O)(=O)NN2C(=O)/C(=C/c3cccnc3)SC2=S)cc1,5.28

row,Compound,"hERG current change (%, negative = inhibition) at 10uM [%]"
1,O=S(=O)(c1ccc(Cl)cc1)N1CCN=C1SCc1cccnc1,4.92
2,NC(=O)C1CCCN(C(=S)Nc2cccc3ccccc23)C1 (stereo not shown),-4.07
3,CCOc1ccccc1NC(=O)CCNC(=O)c1ccco1,12.6
4,COC(=O)CN1C(=O)c2cccc3cccc1c23,-5.49
5,COc1ccc(NC(=O)C#Cc2ccccc2)cc1,-2.36
6,COc1ccc(Cl)cc1S(=O)(=O)Oc1ccc(NC(C)=O)cc1,-51.7
7,O=C(COc1ccccc1)N1CCN(C(=O)COc2ccccc2)CC1,-32.2
8,[N-]=[N+]=CC(=O)C(O)(c1ccccc1)C(Cl)c1ccccc1 (stereo not shown),9.82
9,C=CCn1c(SCc2cccc(F)c2)nc2cc(C(=O)N3CCC(C(N)=O)CC3)ccc2c1=O,-34.7
10,O=C(COC(=O)Cc1ccc(S(=O)(=O)N2CCOCC2)s1)Nc1ccc2c(c1)OCO2,-19.6
11,Cc1ccc2nc(N(CCCN(C)C)C(=O)c3ccco3)sc2c1.Cl,-65.4
12,O=C(O)c1c2c(nc3ccccc13)/C(=C/c1cccc([N+](=O)[O-])c1)CCC2,18.8
13,Cc1ccc(/C=N/NC(=O)c2cccc(S(=O)(=O)N3CCOCC3)c2)o1,-2.9
14,O=C(Cc1ccc2c(c1)OCCO2)N1CCN(S(=O)(=O)c2cccs2)CC1,10
15,COc1ccc(C(=O)C23CN4CN(CN(C4)C2)C3)cc1,4.01
16,O=C(COC(=O)CC1SC(N2CCCC2)=NC1=O)Nc1c(F)c(F)c(F)c(F)c1F (stereo not shown),-12.6
17,CCCS(=O)(=O)N1CCN=C1SCc1cccc(C)c1,-21.6
18,Cc1nc2c(Br)c(C)nn2c2c1CCC2,2.69
19,CCc1ccc2nc(SCC(=O)N(CC)CC)c(C#N)cc2c1,-12.8
20,CC(=O)c1c(O)c2ccccc2n(C)c1=O,17.1
21,N#Cc1cc(N)ccc1Sc1ccc(Cl)cc1,-6.81
22,CCN(CC(=O)Nc1ccc(NC(C)=O)cc1)C(=O)c1cccc(S(=O)(=O)N2c3ccccc3CC2C)c1 (stereo not shown),-18.2
23,COc1cc(C)ccc1OCCOCCOc1ccccc1[N+](=O)[O-],-29.5

row,Compound,"hERG current change (%, negative = inhibition) at 10uM [%]"
1,Cc1cccc(NC(=S)N=Nc2c(O)n(C)c3ccc(S(=O)(=O)N4CCOCC4)cc23)c1,5.02
2,CCOC(=O)c1cn2nc(N3CCCCC3)ccc2n1,-8.23
3,COc1cccc(-c2csc3nc[nH]c(=O)c23)c1,17.3
4,COC(=O)C(C#N)C(=C1C(=O)CC(C)(C)CC1=O)c1ccc(O)cc1 (stereo not shown),17.2
5,COCCNC(=O)CN1c2ccccc2CC1C (stereo not shown),0.0464
6,O=C(Oc1ccc([N+](=O)[O-])cc1)c1ccc2ccccc2n1,2.78
7,O=c1[nH]nc(Cc2ccccc2)c2ccccc12,4.16
8,CC1CCCN(CCCNC(=O)c2ccc3c(c2)N(Cc2ccccc2F)C(=O)c2ccccc2S3(=O)=O)C1 (stereo not shown),2.84
9,Cn1c(C(=O)N2CCN(C(=O)c3ccco3)CC2)cc2c(=O)n(C)c3ccccc3c21,-22.3
10,COc1ccc(C)cc1N(CC(=O)N1CCCC1)S(C)(=O)=O,10.2
11,CCN(CC(=O)NCc1ccc(Cl)cc1)C(=O)/C=C/c1cc(OC)c(OC)c(OC)c1,3.83
12,CCc1cccc(NC(=O)CCc2nc3sc4c(c3c(=O)[nH]2)CCCC4)c1,-20.4
13,O=C(COC(=O)/C=C/c1ccccc1F)Nc1nnc(-c2ccccc2)o1,-2.36
14,COc1ccc(Cl)cc1NC(=O)NCc1cccnc1,-2.64
15,OCCN(Cc1ccccc1)Cc1nc(CC2CC2)no1,20.1
16,CCCNC(=S)N1CCC(c2nc3cc(C)c(C)cc3[nH]2)CC1,-24.5
17,O=C(Nc1ccc(F)cc1)/C(=C1/CCCCCN1)[N+](=O)[O-],-10
18,CC1CN(C(=O)c2cccn(Cc3c(Cl)cccc3Cl)c2=O)CC(C)O1 (stereo not shown),5.84
19,CCOC(=O)NC(c1cccc(Cl)c1)C1CCCCCC1=O (stereo not shown),-9.97
20,CCOc1ccc(NC(=O)CCn2ccnc2)cc1,22.8
21,Cc1ccc(C(=O)NNC(=O)CSc2n[nH]c(-c3cccnc3)n2)cc1,15.3
22,COc1ccc(NC(=O)c2cccc(C#N)c2)cc1NS(=O)(=O)c1ccc(F)cc1,8.63
23,CCCCC(=O)NC(c1ccc(OC)c(OC)c1)c1c(O)ccc2ccccc12 (stereo not shown),-13.7

row,Compound,"hERG current change (%, negative = inhibition) at 10uM [%]"
1,CC(NCC1(N2CCOCC2)CCCCC1)C(=O)Nc1ccc(Cl)cc1Cl.O=C(O)C(=O)O (stereo not shown),-74.6
2,O=C(CS)Nc1ccc2ccccc2c1,20.8
3,Cn1c(=O)n(C)c2cc(S(=O)(=O)NCCc3ccccc3)ccc21,11.6
4,NNC(=O)c1cncc(Br)c1,12.2
5,O=C(CSc1ncccn1)N1CCC(Cc2ccccc2)CC1,0.781
6,Cl.Cn1cccc1CNCCc1ccccc1,-1.74
7,CSCCC(NS(=O)(=O)c1ccccc1F)C(=O)NCc1cccs1 (stereo not shown),4.25
8,CCNC(=S)NNC(=O)c1cccnc1,15.7
9,O=C(NC1CCCCC1)c1ccc(S(=O)(=O)N2CCOCC2)cc1,-2.69
10,c1ccc(Nc2nc(-c3ccncc3)cs2)cc1,1.34
11,O=C(O)c1cccc(-c2ccc(/C=N/NC(=O)c3cccnc3)o2)c1,-3.81
12,CCN(CCCNC(=O)CCn1c(=O)[nH]c2ccsc2c1=O)c1ccccc1,4.54
13,CCCCNC(=O)CCCCCn1c(=O)[nH]c2cc(OC)c(OC)cc2c1=O,2.05
14,Cc1ccccc1-c1nc(CN2CCC(C(=O)NCc3cccnc3)CC2)c(C)o1,-32.8
15,COc1cccc(-n2nnc3c(=O)n(CC(=O)OCc4ccccc4)cnc32)c1,9.39
16,C/C(=N\NC(=O)c1cc(-c2ccncc2)nc2ccccc12)c1ccc(N2CCOCC2)cc1,7.37
17,COc1cc(O)c(C(CCN2CCOCC2)c2cc(OC)c(OC)c(OC)c2)c(OC)c1 (stereo not shown),8.02
18,O=C(c1ccccc1F)N1CCN(C(=O)C(c2ccccc2)c2ccccc2)CC1,-14.7
19,CCN1CCN(C(=S)c2ccc([N+](=O)[O-])cc2)CC1,-36.9
20,CSc1ncccc1C(=O)N(C)CC(=O)Nc1ccc(Cl)c(C(F)(F)F)c1,12.8
21,CC1=CC(C)(C)N(C(=O)CSc2ncn[nH]2)c2ccccc21,2.71
22,Cl.O=C(NC1CCCCC1)NC1CCN(CC(=O)N2CCOCC2)CC1,22.4
